Out of some 410,000 compounds screened, about 5,000 (1.2%) were called active. Inconclusive means that the source gave no clear call. Such entries were picked first, then a sample of the others. Calls come from the whole dose curve; as a rule, active = well fitted inhibition curve with a large enough effect; inconclusive = small, poorly fitted or top-dose-only effect; inactive = no such curve, though single readings can be large or run the other way. Potencies of inconclusive entries are doubtful fits and often do not repeat.
Assay: qHTS for Inhibitors of TGF-b; note: nearly all actives have a fitted effect of over 65% in size
Conditions: HepG2 CAGA-GFP TGF-b/SMAD3 reporter, GFP fluorescence, 18 h, TGF-beta stimulated, 500 pg/mL final; series mostly up to 46.1 µM; activity, negative = inhibition: at the top concentration
Summary of the method: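 Inhibition was scored as loss of TGF-beta-induced (500 pg/mL final, 18 hours, 37 degrees C) GFP in HEPG2 cells carrying a CAGA-GFP reporter, in DMEM with 1% FBS. Well GFP was summed per cell; Activity was normalised to unstimulated and stimulated DMSO wells, then concentration-response fitting.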
% is set by controls: 0 for no effect and ±100 for the full control effect; potency is the fitted concentration of half-maximal effect; tags give direction and shape of the fitted curve.

| SMILES | Potency | activity, negative = inhibition |
| --- | --- | --- |
| Cc1cc(NS(=O)(=O)c2ccc(NC(=O)c3ccc([N+](=O)[O-])s3)cc2)nc(C)n1 | inconclusive: 12.6 µM [inhibitor, single point] | – |
| O=C(Cc1ccc(S(=O)(=O)N2CCOCC2)s1)Nc1ccc(S(=O)(=O)N2CCCCC2)cc1 | inconclusive: 35.5 µM [inhibitor, single point] | – |
| CCCCOC(=O)n1c(SCC(=O)N(C)C)nc2ccccc21 | – | inactive: -4.89% |
| Cc1nn(-c2ccc(N3CCCC3)nn2)c(C)c1CCC(=O)N1CCN(c2ccccc2F)CC1 | inconclusive: 35.5 µM [inhibitor, partial curve, poor fit] | – |
| O=C(Nc1ccccc1F)c1ccc(COc2ccc(Cl)cc2Cl)o1 | – | inactive: 9.97% |
| COc1ccc(N(C(=O)/C=C/C(=O)Nc2cc(C)on2)C(C(=O)NC2CCCC2)c2ccccc2C)cc1 (stereo unspecified) | inconclusive: 35.5 µM [inhibitor, single point] | – |
| CC(C)OP(=O)(OC(C)C)C1(NS(=O)(=O)c2ccc(Cl)cc2)C=C(Cl)C(=O)C(Cl)=C1 | inconclusive: 22.4 µM [inhibitor, single point] | – |
| C#CCOCCOCCOCCNc1nc(N2CCN(C(=O)[C@H](CCC(=O)O)n3cc(C(N)Cc4ccc(O)cc4)nn3)CC2)nc(N2CCN(C(=O)[C@H](CCC(=O)O)n3cc(C(N)[C@H](C)CC)nn3)CC2)n1 (stereo partly specified) | inconclusive: 3.98 µM [inhibitor, full curve, poor fit] | – |
| O=C(C1CCC1)N1CCc2cc(S(=O)(=O)NCCc3ccccc3)ccc21 | – | inactive: -20.4% |
| Cc1c(Cl)cccc1NC(=O)N1CCCN(c2nc(-c3ccccc3)ns2)CC1 | – | inactive: -22% |
| CC(C)(C)C1CCC(=NNc2ncc(C(F)(F)F)cc2Cl)CC1 (stereo unspecified) | inconclusive: 35.5 µM [inhibitor, single point] | – |
| C/C(=N/NC(=O)c1ccc(Cl)s1)c1cccnc1 | inconclusive: 11.2 µM [inhibitor, single point] | – |
| CN(C)Cc1ccc(F)cc1Sc1ccc(Cl)cc1Cl | inconclusive: 14.1 µM [inhibitor, single point] | – |
| O=C(CSc1ccc(-c2cccs2)nn1)N1CCCCCC1 | inconclusive: 3.16 µM [inhibitor, single point] | – |
| CCCCC1=CC2=CC(=O)C(C)(OC(=O)CC)C(=O)C2=CN1CCc1c[nH]c2ccccc12 (stereo unspecified) | – | inactive: 1.69% |
| Cc1ccc(C(=O)N2N=C(c3cccc(NS(C)(=O)=O)c3)CC2c2cccs2)cc1 (stereo unspecified) | inconclusive: 25.1 µM [inhibitor, single point] | – |
| COc1ccc(CC(=O)NC(C)(C)CC(C)=O)cc1OC | – | inactive: 8.15% |
| CCOC(=O)N1CCN(c2c(NCc3ccccc3OC)c(=O)c2=O)CC1 | – | inactive: -0.465% |
| CCOCCCn1c(SCC(=O)NC2CCCCC2)nc2ccccc2c1=O | – | inactive: 4.77% |
| COc1ccc(NC(=O)CN(C)C(=O)c2cn(-c3ccccc3)nc2-c2ccc(F)cc2)cc1 | inconclusive: 35.5 µM [inhibitor, single point] | – |
| CCOC(=O)CCc1c(C)nc2c(c(C)nn2-c2ccc(C)cc2)c1C | inactive | – |
| Cc1c(Cl)cccc1NC(=S)N(CCN(C)C)C(C)c1ccco1 (stereo unspecified) | inconclusive: 12.6 µM [inhibitor, single point] | – |
| Cc1c(Cl)ccc2c(C(=O)NCCCn3nccc3C)cc(-c3ccccn3)nc12 | inconclusive: 35.5 µM [inhibitor, single point] | – |

| SMILES | Potency | activity, negative = inhibition |
| --- | --- | --- |
| C/C(=N\NC(=O)CCC(=O)NCc1ccccc1)c1ccco1 | – | inactive: -21.8% |
| COCCNC(=O)CCC1CCN(Cc2ccc(-c3ccccc3)cc2)CC1 | – | inactive: 7.58% |
| CCCN(CCC)Cc1c(C(=O)N/N=C/c2ccc(C)o2)nnn1-c1nonc1N | inconclusive: 35.5 µM [inhibitor, single point] | – |
| N/C(=N\c1nc2c(c(=O)[nH]1)CCC2)Nc1cccc2ccccc12 | – | inactive: 6.81% |
| CNc1nc(NCC2CCCCC2)c2sccc2n1 | inconclusive: 11.2 µM [inhibitor, single point] | – |
| CCOC(=O)c1c(NC(=O)c2cc3n(n2)C(C(F)(F)F)CC(c2ccccc2)N3)sc(C)c1C (stereo unspecified) | inconclusive: 6.31 µM [inhibitor, single point] | – |
| N#C/C(=C\c1ccc(-c2ccc(F)cc2)o1)C(=O)Nc1nc(-c2cccs2)cs1 | inconclusive: 0.112 µM [inhibitor, full curve, poor fit] | – |
| COc1ccc(S(=O)(=O)NC2CCCCC2)cc1F | – | inactive: -0.992% |
| NC(=O)C1CCN(c2nc(C3CC3)nc3c2nnn3Cc2ccccc2)CC1 | inconclusive: 0.794 µM [inhibitor, full curve] | – |
| Cc1ccc(-c2ccc(/C=N/NC(N)=S)o2)cc1 | inconclusive: 25.1 µM [inhibitor, single point] | – |
| COCCn1c(C)cc(C(=O)COC(=O)c2ccc(Cl)c(S(N)(=O)=O)c2)c1C | – | inactive: 0.511% |
| Cc1ccc(Cl)cc1N(C)C(=O)C1CCCN(c2ncnc3onc(-c4ccc(F)cc4)c23)C1 (stereo unspecified) | active: 11.2 µM | – |
| Cc1ccc(-c2ccc(S(=O)(=O)N3CC(C)OC(C)C3)cc2)cc1 (stereo unspecified) | – | inactive: 3.42% |
| Cc1nc2ccccc2n1CC(=O)NCCN1CCCC1 | – | inactive: -18.7% |
| CCn1c2ccccc2c2nc3ccccc3nc21 | – | inactive: 3.2% |
| CSc1ccc(C(=O)C2CCCN(Cc3cccn3-c3cccnc3)C2)cc1 (stereo unspecified) | inconclusive: 10 µM [inhibitor, partial curve, poor fit] | – |
| CC(=O)NC12CC3CC(C1)CC(C(=O)OCC(=O)c1cc(C)n(C)c1C)(C3)C2 | – | inactive: 3.03% |
| O=C(/C=C/c1cc(Br)ccc1O)c1ccco1 | inconclusive: 11.2 µM [inhibitor, partial curve, poor fit] | – |
| CCCc1[nH]nc2c1C(c1ccc(Br)s1)C(C#N)=C(N)O2 (stereo unspecified) | inconclusive: 22.4 µM [inhibitor, single point] | – |
| CC(C)(C)c1nc(CN2CCCCC2)cc(CN2CCCCC2)c1O | – | inactive: -9.21% |
| COc1ccc2nc(N/C(N)=N/S(C)(=O)=O)nc(C)c2c1 | – | inactive: 1.95% |
| CN(N=Cc1ccc([N+](=O)[O-])cc1)c1ccccn1 | – | inactive: -0.528% |
| CCNc1nc(N)nc(-c2cc(Cl)ccc2O)n1 | inconclusive: 35.5 µM [inhibitor, single point] | – |

From PubChem BioAssay AID588855 (National Center for Advancing Translational Sciences (NCATS), 2011)
